In all, about 420,000 compounds went through this assay and about 64,000 (15%) were called active. The inconclusive results got no clear call from the source; some entries with a clear call stand among them for comparison. The call rests on the fitted dose curve; in most records, active means well fitted inhibition curve with a large enough effect; inconclusive means small, poorly fitted or top-dose-only effect; inactive means flat fitted curve, though single readings scatter. Potencies of inconclusive entries are left out as doubtful fits.
Test: qHTS for Inhibitors of human tyrosyl-DNA phosphodiesterase 1 (TDP1): qHTS in cells in absence of CPT; further: nearly all actives have a fitted effect of over 55% in size
Details: DT40 Tdp1-/- hTDP1 cells, no CPT, ATP luminescence, 48 h; activity change, negative = growth inhibition: at 46.2 µM (top of the series) unless noted
Outline: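 Stably hTDP1-transfected Tdp1-null chicken DT40 cells were treated with library compounds minus camptothecin and grown for at least 48 hr at 37 °C, after which cellular ATP was quantified by luminescence.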
On the % scale 0 is the no-effect control and ±100 the full control effect; potency means the concentration at half of the fitted maximal effect; tags describe the fitted curve by direction and shape.

| SMILES | Potency | activity change, negative = growth inhibition |
| --- | --- | --- |
| CCOc1ccc(-c2cccc(NC(=O)c3ccc(Br)o3)c2)nn1 | inconclusive [inhibitor, single point] | – |
| COc1ccc(S(=O)(=O)N(C)C)cc1NCC(=O)Nc1cccc(C#N)c1 | inconclusive [inhibitor, single point] | – |
| COC(=O)c1ccc(COc2ccc(C3C4=C(CCCC4=O)Nc4onc(C)c43)cc2)cc1 (centres undefined) | – | inactive: -29.5% |
| CCCOc1ccc(C(=O)CCC(=O)OCC(=O)N(CC)c2c(N)n(Cc3ccccc3)c(=O)[nH]c2=O)cc1 | inconclusive [inhibitor, single point] | – |
| Cc1ccccc1Cn1cc(NC(=O)c2noc3c2CC(C(C)(C)C)CC3)cn1 (centres undefined) | – | inactive: -27.7% |
| COc1ccc(CC(=O)Nc2ccc(F)c(Cl)c2)cc1S(=O)(=O)N1CCOCC1 | inconclusive [inhibitor, single point] | – |
| CNC(=S)N(Cc1cccs1)Cc1cc2cc(OC)ccc2[nH]c1=O | inconclusive [inhibitor, single point] | – |
| Cc1cc(=O)[nH]c(SCC(=O)NC(c2ccccc2)c2ccccc2)n1 | inconclusive [inhibitor, partial curve, poor fit] | – |
| Cn1c(=NC(=O)C(C)(C)C)sc2cccc(F)c21 | – | inconclusive: -33.8% [inhibitor] |
| O=C(Nc1ccsc1C(=O)NC1CC1)c1ccccc1 | inconclusive [inhibitor, partial curve] | – |
| Cc1ccccc1NC(=O)/C(=C/c1ccco1)c1ccccc1 | active: 11.6 µM | – |
| COc1ccc2nc(C)cc(SCC(=O)O)c2c1 | inactive | – |
| CC1=C(C(=O)OCc2ccccc2)C(c2ccsc2)C(C#N)=C(N)O1 (centres undefined) | inconclusive [inhibitor, partial curve, poor fit] | – |
| Cc1cccc(OCc2nnc(SCC(=O)N3c4ccccc4CCc4ccccc43)o2)c1 | inconclusive [inhibitor, single point] | – |
| COc1cc(C(=S)N2CCCC2)ccc1OCc1ccccc1 | inconclusive [inhibitor, single point] | – |
| CCN1C(=O)[C@H]2[C@@H](c3ccc(-c4ccc5c(c4)OCO5)cc3)N3CCC[C@@]3(C(=O)OC)[C@H]2C1=O | active: 11.6 µM | – |
| CCC1(c2ccccc2)NC(=O)N(CC(=O)Nc2ccccc2C(=O)NC2CC2)C1=O (centres undefined) | – | inactive: 2.57% |
| Cc1ccc(C(=O)c2oc3ccccc3c2NC(=O)COc2ccc(C(C)C)cc2)cc1 | inconclusive [inhibitor, partial curve, poor fit] | – |
| CCn1cc(C(=O)N[C@@H](C)C(=O)OC)c(=O)c2cc3c(cc21)OCO3 | – | inactive: -15.1% |
| CN(C(=O)c1ccc(NC(=O)Cc2ccc([N+](=O)[O-])cc2)cc1)C1CCCC1 | inconclusive [inhibitor, single point] | – |
| CN(Cc1ccccc1)C1CCN(Cc2ccccc2[N+](=O)[O-])CC1 | – | inactive: -24.4% |
| Cn1c(C(=O)NCCc2c[nH]c3ccccc23)cc2sccc21 | inconclusive [inhibitor, single point] | – |

| SMILES | Potency | activity change, negative = growth inhibition |
| --- | --- | --- |
| O=C(Nc1ccc(S(=O)(=O)N2CCOCC2)cc1)c1cc([N+](=O)[O-])ccc1Cl | inconclusive [inhibitor, single point] | – |
| O=C(Nn1c(Cc2ccccc2)nc2ccccc2c1=O)c1c(O)c2cccc3c2n(c1=O)CCC3 | inconclusive [inhibitor, single point] | – |
| CCOc1ccc(NC(=O)c2cc(OC)nc3ccccc23)cc1 | active: 0.58 µM | – |
| Cc1ccc(C(C)NC(=O)c2cccs2)cc1C (centres undefined) | – | inconclusive: -36.5% [inhibitor] |
| CCCCCCCNC(=O)C1(CC2CC(c3ccc(Cl)cc3)=NO2)CCN(C(=O)Cc2ccc(F)cc2)CC1 (centres undefined) | inconclusive [inhibitor, single point] | – |
| COc1ccccc1C(=O)NNC(=O)c1cccc(C)c1 | inconclusive [inhibitor, single point] | – |
| Cc1ccccc1S(=O)Cc1ccc(C(=O)N2CCN(C3CCCCC3)CC2)o1 (centres undefined) | inconclusive [inhibitor, single point] | – |
| COC(=O)c1ccc(COC(=O)c2ccc(CS(=O)(=O)c3ccc(C)cc3)cc2)cc1 | – | inactive: -1.4% |
| O=C(NC(=S)Nc1ccccc1N1CCCC1)c1ccco1 | inconclusive [inhibitor, single point] | – |
| COc1ccc(CNC(=O)CCSc2nc(-c3ccc4c(c3)OCO4)cc(C(F)(F)F)n2)cc1 | – | inconclusive: -30.1% [inhibitor] |
| CCOc1ccc(N(CC(=O)NC2CCCCC2)S(=O)(=O)c2ccccc2)cc1 | inconclusive [inhibitor, single point] | – |
| Cc1csc(-c2coc3cc(O[C@@H]4O[C@H](CO)[C@@H](O)[C@@H](O)[C@H]4O)ccc3c2=O)n1 | – | inactive: 1.27% [at 9.04 µM] |
| Cc1c(-c2cc(C(=O)O)on2)cnn1C | – | inactive: 1.94% |
| O=C(NC1CCCCC1)C(c1ccc(F)cc1)N(CCc1ccccc1)C(=O)CN1C(=O)c2ccccc2S1(=O)=O (centres undefined) | active: 5.8 µM | – |
| O=C(NCc1cccnc1)C1CCN(S(=O)(=O)N2CCC3(CC2)OCCO3)CC1 | – | inactive: -3.68% |
| O=C(c1ccc(COc2ccc(Cl)cc2Cl)o1)N1CCCC1 | active: 18.4 µM | – |
| C[C@@H]1[C@H](O)C[C@@]23COC(=O)C2=CCCC3[C@@]1(C)CCC1COC(=O)C1 (some centres undefined) | – | inactive: 8.67% |
| CC(C)(C)OC(=O)NCc1ccc(CNC(=O)c2[nH]cnc2C(=O)N[C@@H](Cc2ccccc2)C(=O)OC(C)(C)C)cc1 | active: 20.6 µM | – |
| NS(=O)(=O)c1ccc(Sc2nc3ccccc3s2)c([N+](=O)[O-])c1 | active: 10.3 µM | – |
| O=C(CC1C(=O)N(c2ccccc2)C(=O)N1Cc1ccc(F)cc1)Nc1cccc(F)c1 (centres undefined) | active: 23.1 µM | – |
| CCOC(=O)CN1C(=O)C(O)(CC(=O)c2ccco2)c2ccccc21 (centres undefined) | inconclusive [inhibitor, single point] | – |
| CCOc1ccc(-n2c(SCC(=O)OC)nc3sc4c(c3c2=O)CCN(C)C4)cc1 | inconclusive [inhibitor, single point] | – |

From PubChem BioAssay AID686978 (National Center for Advancing Translational Sciences (NCATS), 2013)
